From PubChem BioAssay AID504466 (National Center for Advancing Translational Sciences (NCATS), 2011)
About 4,200 (1.3%) of roughly 330,000 compounds were called active. The inconclusive results got no clear call from the source; some entries with a clear call stand among them for comparison. Calls follow the shape of the dose curve; as a rule, active = well fitted activation curve with a large enough effect; inconclusive = small, poorly fitted or top-dose-only effect; inactive = no such curve, though single readings can be large or run the other way. A potency beside an inconclusive call is a rough fit, not a confirmed value.

Assay: qHTS screen for small molecules that induce genotoxicity in human embryonic kidney (HEK293T) cells expressing luciferase-tagged ELG1; also: nearly all actives have a fitted effect of over 60% in size
Settings: HEK293T ELG1-luciferase reporter, luminescence, 16 h; series mostly up to 46 µM
Outline: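 HEK293T cells expressing luciferase-tagged ELG1 were treated with compound or DMSO for 16 hr at 37°C. Luciferase activity was then read after 30 min with ONE-Glo at room temperature; rising signal flags genetic stress.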
Potency is read from the fitted curve at half-maximal effect; tags tell the direction and shape of the fitted curve.

Compound	Potency
COc1ccc(C(=O)N2CCN(Cc3ccc4c(c3)OCO4)CC2)cc1[N+](=O)[O-]	inactive
O=c1c(Br)c(N2CCCC2)cnn1-c1ccccc1	inconclusive: 18.4 µM [activator, partial curve]
O=S(=O)(c1ccc2c(c1)CCN2)N1CCCC1	inactive
Cc1cc(C(=O)N/N=C2\CC(=O)c3ccccc32)c(C)n1-c1ccccc1	inconclusive: 5.8 µM [activator, partial curve]
COc1c(Cl)cnn(-c2ccccc2)c1=O	inactive
Nc1c(Cl)c(Cl)nc(C(=O)N/N=C/c2ccco2)c1Cl	inactive
Cc1cccc(C(=O)Nc2nc3ccc(S(C)(=O)=O)cc3s2)c1	inconclusive: 2.06 µM [activator, full curve, poor fit]
N#Cc1ccccc1NC(=O)CSc1cn[nH]n1	inactive
CCOc1ccc(C(=O)Nc2nnc(C)s2)cc1OCC	inconclusive: 20.6 µM [activator, partial curve, poor fit]
O=C(/C=C/Nc1ccc(F)c(Cl)c1)c1ccco1	active: 4.11 µM
COc1cccc(/C=N/NC(=O)CNC(=O)c2ccncc2)c1O	inconclusive: 32.6 µM [activator, partial curve, poor fit]
Cc1cc(C)c2c(C)nn(-c3ccccc3)c2n1	inconclusive: 0.082 µM [activator, full curve, poor fit]
Cc1ccccc1-c1noc(-c2cccs2)n1	inconclusive: 20.6 µM [activator, partial curve]
COC(=O)CN(c1cc([N+](=O)[O-])ccc1OC)S(C)(=O)=O	inactive
CCc1c(C(=O)Nc2ccncc2)csc1C	inconclusive: 31.6 µM [activator, single point]
Cc1ccc(NC(=O)c2ccc3ccccc3n2)cc1S(=O)(=O)N(C)C	inconclusive: 2.06 µM [activator, full curve, poor fit]
O=C(NCC(=O)N1CCCC(C(F)(F)F)C1)c1ccc2ccccc2c1 (stereo not drawn)	inactive
O=C(Nc1ccccc1)c1ccn[nH]1	inconclusive: 4.61 µM [activator, partial curve]
CCOC1OC(=O)C(Cl)=C1Nc1cc(C)ccc1C (stereo not drawn)	inactive
O=C(Nc1ccc2c(c1)C(=O)N(c1ccccc1)C2=O)c1cccs1	inconclusive: 32.6 µM [activator, partial curve, poor fit]
CN(CCO)c1ccc(/C=N/Nc2nncc3ccccc23)cc1	active: 0.116 µM
COc1ccc(Cl)cc1NC(=O)c1nnn(CC(=O)Nc2cc(C)cc(C)c2)c1N	inconclusive: 18.3 µM [activator, partial curve, poor fit]
COc1cc(/C=C/c2nc3ccccc3c(=O)[nH]2)ccc1OC(F)F	inactive
COc1ccc(N(/N=C2\Sc3ccccc3C2=O)C(C)=O)cc1	inconclusive: 3.26 µM [activator, partial curve]
Cc1ccc(-c2nnc(Cc3ccc(Cl)cc3)o2)cc1	active: 16.4 µM
O=C(/C=C/c1cccs1)Nc1ccc(Br)cn1	active: 9.2 µM
O=C(CSCc1ccco1)N1CCc2ccccc21	inconclusive: 9.2 µM [activator, partial curve]

Compound	Potency
O=c1c(-c2ccc([N+](=O)[O-])cc2)coc2c(O)c(O)ccc12	inconclusive: 18.3 µM [activator, single point]
CCOC(=O)c1ccccc1NC(=O)c1ccc2c(SCC(=O)O)c3c(nc2c1)CCCC3	inactive
CCc1ccc(NC(=O)Nc2ccon2)cc1	inconclusive: 3.66 µM [activator, full curve]
O=C(N/N=C/c1ccccn1)c1cc(C2CC2)[nH]n1	active: 18.3 µM
COc1ccc(N=c2ssnc2Cl)cc1	inactive
Cc1cnc(C(=O)OCC(=O)Nc2ccc(Br)cc2F)cn1	inactive
CNc1nc(Nc2ccc(Br)cc2)nc(N)c1[N+](=O)[O-]	inconclusive: 5.8 µM [activator, partial curve, poor fit]
CCN(C(=O)COC(=O)C1CC1)c1c(N)n(Cc2ccccc2)c(=O)[nH]c1=O	inactive
O=C(CCC(=O)c1ccc(F)cc1)OCc1nnc(-c2ccc([N+](=O)[O-])cc2)o1	inactive
Cc1cc2oc(=O)c(CC(=O)NCCCN(C)C)c(C)c2c2occ(C(C)(C)C)c12	inactive
c1ccc(CSc2nnc(Cc3ccccc3)o2)cc1	inconclusive: 23.1 µM [activator, single point]
C/C(=N\Nc1ccc(F)cc1F)c1cccs1	inconclusive: 18.3 µM [activator, partial curve, poor fit]
CCN(CC)S(=O)(=O)c1ccc(NC(=O)COC(=O)c2ccc(-n3nc(C)cc3C)cc2)cc1	inactive
Nc1nonc1C(=O)N/N=C\c1cc2c(cc1Cl)OCO2	inactive
Cc1oc2nc(SCC(=O)N3CCCCC3)nc(N)c2c1C	inactive
CS(=O)(=O)N1CCN(c2ccc(NC(=O)c3ccc(Br)o3)cc2)CC1	active: 1.46 µM
O=C(Cc1ncc(C(F)(F)F)cc1Cl)NNc1cccc(F)n1	inactive
COc1cc(/C=C/C(=O)OCN2C(=O)c3ccccc3C2=O)ccc1OC(F)F	inactive
O=C(Nc1nc(=O)c2ccccc2s1)c1ccccc1	active: 7.31 µM
CCN1CCN(Cc2ccc(NC(=O)c3cc(NC(=O)c4cc(C)on4)cc(OC)c3)cc2C(F)(F)F)CC1	inconclusive: 32.6 µM [activator, partial curve, poor fit]
COc1ccc(NC(=O)c2cnn(-c3ccccc3)c2C)cc1OC	inconclusive: 20.6 µM [activator, partial curve]
CCC(=O)Nc1cccc(-c2ccc(N3CCN(C)CC3)nn2)c1	inconclusive: 10.3 µM [activator, partial curve]
O=C(O)c1csc(Cc2ccccc2)n1	inactive
CCOC(=O)C(/C(N)=N/C(=O)Nc1ccccc1)=C(\C)O	inactive
COc1cccc(C(=O)Cn2c(=N)n(C)c3ccccc32)c1	active: 0.366 µM
Cc1cc(C)cc(NC(=O)C(c2ccccc2)N2CCCC2)c1 (stereo not drawn)	inactive
